Patent publication US20040002425A1, “Triketone derivatives and herbicides” (Idemitsu Kosan Co., Ltd., priority 1998, published 2004)
The name of at least one read-out is uncertain.

What was measured:
Scirups juncoides [1] = experiment: Biological Test 1 (soaking in water/treatment on the 3rd day after transplantation): weed-killing effect on Scirups juncoides; type: in vivo, Scirpus juncoides; conditions: Treatment performed 3 days after transplantation
Echinochloa crug-galli [2] = experiment: Biological Test 2 (soaking in water/treatment on the 10th day after transplantation): weed-killing effect on barnyard grass; type: in vivo, Echinochloa crus-galli; conditions: Treatment performed 10 days after transplantation
Scirups juncoides [3] = experiment: Biological Test 2 (soaking in water/treatment on the 10th day after transplantation): weed-killing effect on Scirups juncoides; type: in vivo, Scirpus juncoides; conditions: Treatment performed 10 days after transplantation
Echinochloa crug-galli [4] = experiment: Biological Test 1 (soaking in water/treatment on the 3rd day after transplantation): weed-killing effect on barnyard grass; type: in vivo, Echinochloa crus-galli; conditions: Treatment performed 3 days after transplantation

SMILES | Weed-killing effect, Scirups juncoides (Scirups juncoides [1]; dose 100 g/ha) | Weed-killing effect, Scirups juncoides (Scirups juncoides [1]; dose 200 g/ha) | Weed-killing effect, Echinochloa crug-galli (Echinochloa crug-galli [2]; dose 100 g/ha) | Weed-killing effect, Echinochloa crug-galli (Echinochloa crug-galli [2]; dose 200 g/ha) | Weed-killing effect, Scirups juncoides (Scirups juncoides [3]; dose 100 g/ha) | Weed-killing effect, Scirups juncoides (Scirups juncoides [3]; dose 200 g/ha) | Weed-killing effect, Echinochloa crug-galli (Echinochloa crug-galli [4]; dose 100 g/ha) | Weed-killing effect, Echinochloa crug-galli (Echinochloa crug-galli [4]; dose 200 g/ha)
CSC1=C(C(=O)c2cc(C)c3c(c2C)C(OC(C)C)CCS3(=O)=O)C(=O)CCC1 (stereo not shown) [B-67] | 3 (40% or more and less than 70%) | 5 (90% or more (almost completely withered)) | 4 (70% or more and less than 90%) | 5 (90% or more (almost completely withered)) | 2 (20% or more and less than 40%) | 5 (90% or more (almost completely withered)) | 4 (70% or more and less than 90%) | 5 (90% or more (almost completely withered))
Cc1cc(C(=O)C2=C(Sc3ccccc3)CCCC2=O)c(C)c2c1S(=O)(=O)CCC2OC(C)C (stereo not shown) [B-68, 4-(2-propyl)oxy-5,8-dimethyl-6-(3-phenylthio-1-oxocyclohexan-2-yl)carbonylthiochroman-1,1-dioxide] | 3 (40% or more and less than 70%) | 4 (70% or more and less than 90%) | 3 (40% or more and less than 70%) | 5 (90% or more (almost completely withered)) | 2 (20% or more and less than 40%) | 4 (70% or more and less than 90%) | 3 (40% or more and less than 70%) | 5 (90% or more (almost completely withered))
Cc1cc(C(=O)C2=C(S(C)(=O)=O)CCCC2=O)c(C)c2c1S(=O)(=O)CCC2OC(C)C (stereo not shown) [B-69] | 4 (70% or more and less than 90%) | 5 (90% or more (almost completely withered)) | 4 (70% or more and less than 90%) | 5 (90% or more (almost completely withered)) | 3 (40% or more and less than 70%) | 5 (90% or more (almost completely withered)) | 4 (70% or more and less than 90%) | 5 (90% or more (almost completely withered))
Cc1cc(C(=O)C2=C(SCc3ccccc3)CCCC2=O)c(C)c2c1S(=O)(=O)CCC2OC(C)C (stereo not shown) [B-70] | 3 (40% or more and less than 70%) | 4 (70% or more and less than 90%) | 2 (20% or more and less than 40%) | 5 (90% or more (almost completely withered)) | 2 (20% or more and less than 40%) | 4 (70% or more and less than 90%) | 3 (40% or more and less than 70%) | 5 (90% or more (almost completely withered))
Cc1cc(C(=O)C2=C(S(=O)(=O)Cc3ccccc3)CCCC2=O)c(C)c2c1S(=O)(=O)CCC2OC(C)C (stereo not shown) [B-71] | 4 (70% or more and less than 90%) | 5 (90% or more (almost completely withered)) | 4 (70% or more and less than 90%) | 5 (90% or more (almost completely withered)) | 3 (40% or more and less than 70%) | 5 (90% or more (almost completely withered)) | 4 (70% or more and less than 90%) | 5 (90% or more (almost completely withered))
CO/N=C1\CCS(=O)(=O)c2ccc(C(=O)C3=C(Cl)CCCC3=O)c(C)c21 [B-72] | 1 (5% or more and less than 20%) | 5 (90% or more (almost completely withered)) | 3 (40% or more and less than 70%) | 5 (90% or more (almost completely withered)) | 1 (5% or more and less than 20%) | 4 (70% or more and less than 90%) | 4 (70% or more and less than 90%) | 5 (90% or more (almost completely withered))
CO/N=C1\CCS(=O)(=O)c2ccc(C(=O)C3=C(SC)CCCC3=O)c(C)c21 [B-73] | 1 (5% or more and less than 20%) | 5 (90% or more (almost completely withered)) | 4 (70% or more and less than 90%) | 5 (90% or more (almost completely withered)) | 1 (5% or more and less than 20%) | 4 (70% or more and less than 90%) | 5 (90% or more (almost completely withered)) | 5 (90% or more (almost completely withered))
CO/N=C1\CCS(=O)(=O)c2ccc(C(=O)C3=C(Sc4ccccc4)CCCC3=O)c(C)c21 [B-74, 4-methoxyimino-5-methyl-6-(3-phenylthio-1-oxocyclohexan-2-yl)carbonylthiochroman-1,1-dioxide] | 2 (20% or more and less than 40%) | 4 (70% or more and less than 90%) | 4 (70% or more and less than 90%) | 5 (90% or more (almost completely withered)) | 1 (5% or more and less than 20%) | 4 (70% or more and less than 90%) | 5 (90% or more (almost completely withered)) | 5 (90% or more (almost completely withered))
CO/N=C1\CCS(=O)(=O)c2ccc(C(=O)C3=C(S(=O)(=O)c4ccccc4)CCCC3=O)c(C)c21 [B-75] | 4 (70% or more and less than 90%) | 5 (90% or more (almost completely withered)) | 4 (70% or more and less than 90%) | 5 (90% or more (almost completely withered)) | 3 (40% or more and less than 70%) | 5 (90% or more (almost completely withered)) | 5 (90% or more (almost completely withered)) | 5 (90% or more (almost completely withered))
CO/N=C1\CCS(=O)(=O)c2ccc(C(=O)C3=C(N(C)OC)CCCC3=O)c(C)c21 [B-76, 4-methoxyimino-5-methyl-6-[3-(N-methoxymethyl)amino-1-oxocyclohexan-2-yl]carbonylthiochroman-1,1-dioxide] | 3 (40% or more and less than 70%) | 5 (90% or more (almost completely withered)) | 4 (70% or more and less than 90%) | 5 (90% or more (almost completely withered)) | 3 (40% or more and less than 70%) | 5 (90% or more (almost completely withered)) | 5 (90% or more (almost completely withered)) | 5 (90% or more (almost completely withered))
O=C1CCCC(Cl)=C1C(=O)c1ccc2c(c1Cl)CCCS2(=O)=O [B-77] | 5 (90% or more (almost completely withered)) | 5 (90% or more (almost completely withered)) | 4 (70% or more and less than 90%) | 5 (90% or more (almost completely withered)) | 5 (90% or more (almost completely withered)) | 5 (90% or more (almost completely withered)) | 4 (70% or more and less than 90%) | 5 (90% or more (almost completely withered))
O=C1CCCC(Sc2ccccc2)=C1C(=O)c1ccc2c(c1Cl)CCCS2(=O)=O [B-78] | 5 (90% or more (almost completely withered)) | 5 (90% or more (almost completely withered)) | 3 (40% or more and less than 70%) | 5 (90% or more (almost completely withered)) | 5 (90% or more (almost completely withered)) | 5 (90% or more (almost completely withered)) | 3 (40% or more and less than 70%) | 5 (90% or more (almost completely withered))
CSC1=C(C(=O)c2ccc3c(c2Cl)CCCS3(=O)=O)C(=O)CCC1 [B-79] | 5 (90% or more (almost completely withered)) | 5 (90% or more (almost completely withered)) | 3 (40% or more and less than 70%) | 5 (90% or more (almost completely withered)) | 5 (90% or more (almost completely withered)) | 5 (90% or more (almost completely withered)) | 3 (40% or more and less than 70%) | 5 (90% or more (almost completely withered))
CS(=O)(=O)C1=C(C(=O)c2ccc3c(c2Cl)CCCS3(=O)=O)C(=O)CCC1 [B-80] | 5 (90% or more (almost completely withered)) | 5 (90% or more (almost completely withered)) | 4 (70% or more and less than 90%) | 5 (90% or more (almost completely withered)) | 5 (90% or more (almost completely withered)) | 5 (90% or more (almost completely withered)) | 4 (70% or more and less than 90%) | 5 (90% or more (almost completely withered))
